{
  "source": "PubChem BioAssay AID1508642",
  "about": "(National Center for Advancing Translational Sciences (NCATS), 2021)",
  "note": "The whole screen tested about 43,000 compounds, of which about 200 (0.47%) were called active. Inconclusive results (about 12%) are left out. Calls come from the whole dose curve; as a rule, active = well fitted cell-killing curve with a large enough effect; inconclusive = small, poorly fitted or top-dose-only effect, or effect the other way; inactive = flat fitted curve, though single readings scatter. This is one part of the list. % is set by controls: 0 for no effect and ±100 for the full control effect.",
  "data": [
    {"assay": "Cell viability qHTS assay in S16 Pmp22-F2sN cells; note: nearly all actives have a fitted effect of over 65% in size", "settings": "S16 Pmp22-F2sN Schwann cells (luciferase reporters placed in the Pmp22 gene) viability, CellTiter-Glo, 24 h; series mostly up to 57.5 µM; activity change, negative = cytotoxicity: at the top concentration", "procedure,_shortened": "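Seed 500-1,000 S16 Pmp22-F2sN cells per well in phenol-red-free DMEM with 10% heat-inactivated FBS; pin-add 23 nL compound; incubate 24 h at 37C; add CellTiter-Glo, wait 15 min protected from light; read luminescence.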", "values": [
      {"compound": "CCc1ccc(NC(=O)CN2C(=O)CCSc3ccc(S(=O)(=O)N4CCCC4)cc32)cc1", "activity change, negative = cytotoxicity": "inactive: 0.936%"},
      {"compound": "COc1ccc(C(=O)c2cn(Cc3cccc(C)c3)c3cc4c(cc3c2=O)OCCO4)cc1OC", "activity change, negative = cytotoxicity": "inactive: -6.93%"},
      {"compound": "Cc1nnc2c3ccccc3nc(N3CCN(c4cccc(Cl)c4)CC3)n12", "activity change, negative = cytotoxicity": "inactive: -12%"},
      {"compound": "CCOCCCn1c(=N)c(C(=O)NC2CCCC2)cc2c(=O)n3cccc(C)c3nc21", "activity change, negative = cytotoxicity": "inactive: -3.32%"},
      {"compound": "Cc1cccc(-n2ncc3c(Nc4c(C)cc(C)cc4C)ncnc32)c1", "activity change, negative = cytotoxicity": "inactive: -18%"},
      {"compound": "Cc1noc(Cn2c(=O)c3ccccc3n(CC(=O)Nc3ccccc3C(F)(F)F)c2=O)n1", "activity change, negative = cytotoxicity": "inactive: 2.8%"},
      {"compound": "CCOC(=O)c1cccc(Nc2cc(C)nc(C)n2)c1", "activity change, negative = cytotoxicity": "inactive: 0.756%"},
      {"compound": "COc1ccccc1CNC(=O)CN1C(=O)CCCc2ccccc21", "activity change, negative = cytotoxicity": "inactive: -4.34%"},
      {"compound": "CCc1ccc(NC(=O)c2oc3c(c2C)-c2[nH]ncc2CC3)cc1", "activity change, negative = cytotoxicity": "inactive: -7.04%"},
      {"compound": "CCc1ccc(NC(=O)c2ccc3c(c2)c(C)c(C)n3Cc2ccccc2)cc1", "activity change, negative = cytotoxicity": "inactive: -8.07%"},
      {"compound": "CCCCOc1ccc(C2c3c(oc4ccccc4c3=O)C(=O)N2c2nc(C)c(C(=O)OCC)s2)cc1OC", "note": "(configuration not stated)", "activity change, negative = cytotoxicity": "inactive: -8.86%"},
      {"compound": "Cn1c(C(=O)N2CCC(C(=O)NCCc3ccc(S(N)(=O)=O)cc3)CC2)cc2sccc21", "activity change, negative = cytotoxicity": "inactive: -8.78%"},
      {"compound": "CCOC(=O)c1ccc(NC(=O)c2cc3c(n(-c4ccc(C)cc4)c2=O)CC(C)(C)CC3=O)cc1", "activity change, negative = cytotoxicity": "inactive: -2.22%"},
      {"compound": "COc1ccc(-c2nc3scc(CCNS(=O)(=O)c4cccc(C(C)=O)c4)n3n2)cc1", "activity change, negative = cytotoxicity": "inactive: -5.47%"},
      {"compound": "CCOC(=O)c1cccc(NC(=O)CCNS(=O)(=O)c2cccc3nonc23)c1", "activity change, negative = cytotoxicity": "inactive: 27.1%"},
      {"compound": "O=C(CSc1nc2c(oc3ccccc32)c(=O)[nH]1)Nc1cccc(Cl)c1", "activity change, negative = cytotoxicity": "inactive: -8.22%"},
      {"compound": "CC1=C(c2ccc(Cl)cc2)S(=O)(=O)NC1=NCc1ccc(C)cc1", "activity change, negative = cytotoxicity": "inactive: 17.9%"},
      {"compound": "CN(C)c1cccc(C(=O)Nc2ccc(-c3nc4ccccc4s3)cc2)c1", "activity change, negative = cytotoxicity": "inactive: -2.49%"},
      {"compound": "CC12CN3CC(C)(CN(C1)C3c1ccc(OCc3ccccc3)cc1)C2=O", "note": "(configuration not stated)", "activity change, negative = cytotoxicity": "inactive: 9.55%"},
      {"compound": "Cc1ccc(NC(=O)CSc2nnc(C)c(=O)[nH]2)cc1", "activity change, negative = cytotoxicity": "inactive: -3.75%"},
      {"compound": "CCc1ccc(NC(=O)Cn2c(=O)ccc3cc(S(=O)(=O)N4CCCC4)ccc32)cc1", "activity change, negative = cytotoxicity": "inactive: 6.94%"},
      {"compound": "Cc1cc(C)c(S(=O)(=O)Nc2cccc(-c3cn4ccccc4n3)c2)c(C)c1", "activity change, negative = cytotoxicity": "inactive: -19.9%"},
      {"compound": "Cc1ccc(NC(=O)Cn2c(=O)n(CCc3ccccc3)c(=O)c3c4c(sc32)CCCC4)cc1C", "activity change, negative = cytotoxicity": "inactive: 10.9%"},
      {"compound": "Cc1ccc(C)c(CN2C(=O)c3ccccc3S(=O)c3ccc(C(=O)NCc4ccco4)cc32)c1", "note": "(configuration not stated)", "activity change, negative = cytotoxicity": "inactive: -1.86%"},
      {"compound": "COc1ccc(Cn2ccc3nc(C)c(C(=O)Nc4ccc(OC)cc4OC)cc3c2=O)cc1", "activity change, negative = cytotoxicity": "inactive: 7.59%"},
      {"compound": "COc1cccc(NC(=O)c2ccc(CNS(=O)(=O)c3ccc4c(c3)C(C)(C)C(=O)N4C)cc2)c1", "activity change, negative = cytotoxicity": "inactive: -20.6%"},
      {"compound": "O=C(/C=C/c1ccco1)Nc1ccc(Cl)c(-c2nc3cc(Cl)ccc3o2)c1", "activity change, negative = cytotoxicity": "inactive: -21.1%"},
      {"compound": "Cc1c(Cl)cccc1NC(=O)CSc1cc(-c2ccccc2)ncn1", "activity change, negative = cytotoxicity": "inactive: 20.3%"},
      {"compound": "Cc1ccc(NC(=O)C2CCN(c3nn4c(=O)cc(C)nc4s3)CC2)cc1", "activity change, negative = cytotoxicity": "inactive: 2.97%"},
      {"compound": "CC(C)n1c(=O)c2oc3ccccc3c2n(Cc2ccccc2F)c1=O", "activity change, negative = cytotoxicity": "inactive: 1.19%"},
      {"compound": "Cc1cc2ccccc2n1-c1ccc(C(=O)N2CCC(C(=O)NCc3ccc(F)cc3)CC2)s1", "activity change, negative = cytotoxicity": "inactive: -16.6%"},
      {"compound": "COc1ccc(CNC(=O)Cn2ccc3cc(S(=O)(=O)N4CCCCCC4)ccc32)c(OC)c1", "activity change, negative = cytotoxicity": "inactive: -16.5%"},
      {"compound": "Cc1ccc(N2CC(NC(=O)/C=C\\c3ccc4c(c3)OCO4)CC2=O)cc1", "note": "(configuration not stated)", "activity change, negative = cytotoxicity": "inactive: 1.74%"},
      {"compound": "O=C(C1CC1)N1CCc2cc(Br)cc(S(=O)(=O)N3CCN(c4ccccc4F)CC3)c21", "activity change, negative = cytotoxicity": "inactive: 9.96%"},
      {"compound": "O=C(Cc1csc2nc(-c3ccccc3)cn12)NCc1ccc(F)cc1", "activity change, negative = cytotoxicity": "inactive: 13.4%"},
      {"compound": "CCOc1ccccc1NC(=O)N1CCCn2nc(C)cc21", "activity change, negative = cytotoxicity": "inactive: 2.94%"},
      {"compound": "O=C(NCC(c1cccs1)S(=O)(=O)c1cccs1)c1ccc(C(F)(F)F)cc1", "note": "(configuration not stated)", "activity change, negative = cytotoxicity": "inactive: 10.8%"},
      {"compound": "COc1ccc(CCCc2nnc(SCC(=O)Nc3ccccc3F)o2)cc1C", "activity change, negative = cytotoxicity": "inactive: 6.34%"},
      {"compound": "COc1cccc(N(Cc2nnc3n2CCCCC3)C(=O)Nc2cccc(Cl)c2)c1", "activity change, negative = cytotoxicity": "inactive: 1.62%"},
      {"compound": "CCOCCCNC(=O)CN1C(=O)c2c(c3ccccc3n2C)C1c1ccc(OC)cc1", "note": "(configuration not stated)", "activity change, negative = cytotoxicity": "inactive: -0.689%"},
      {"compound": "COc1ccc(N(C(=O)COc2ccc(Br)cc2)S(=O)(=O)c2ccc(C)cc2)cc1", "activity change, negative = cytotoxicity": "inactive: 0.49%"},
      {"compound": "CCOC(=O)c1c(S(=O)(=O)N2CCCC(C(=O)Nc3ncccc3C)C2)c(C)n(C)c1C", "note": "(configuration not stated)", "activity change, negative = cytotoxicity": "inactive: -0.94%"},
      {"compound": "O=C(OCc1ccccc1Cl)c1ccc(-c2nnn(Cc3ccccc3Cl)n2)cc1", "activity change, negative = cytotoxicity": "inactive: -5.07%"},
      {"compound": "CCOc1ccc(CNC(=O)Cn2c(=O)c3cccn3c3ccc(F)cc32)cc1OC", "activity change, negative = cytotoxicity": "inactive: 3.88%"},
      {"compound": "COc1cc(/C=C/c2nc(C#N)c(NC(C)c3ccccc3)o2)cc(OC)c1OC", "note": "(configuration not stated)", "activity change, negative = cytotoxicity": "inactive: -29.9%"},
      {"compound": "CCOC(=O)CCN(c1ccccc1)S(=O)(=O)c1ccc2[nH]c(=O)ccc2c1", "activity change, negative = cytotoxicity": "inactive: 5.69%"},
      {"compound": "CCc1ccc(Oc2nc3c(C)cccn3c(=O)c2/C=C(\\C#N)c2nc3ccccc3s2)cc1", "activity change, negative = cytotoxicity": "inactive: -32.9%"}
    ]}
  ]
}
